This is an account of results in publication PMC2566891 (Nucleic Acids Research, 2008).

The target of this assay is T1, 14-3-3ɛ (UniProt P62258 1-255).
T1 sequence: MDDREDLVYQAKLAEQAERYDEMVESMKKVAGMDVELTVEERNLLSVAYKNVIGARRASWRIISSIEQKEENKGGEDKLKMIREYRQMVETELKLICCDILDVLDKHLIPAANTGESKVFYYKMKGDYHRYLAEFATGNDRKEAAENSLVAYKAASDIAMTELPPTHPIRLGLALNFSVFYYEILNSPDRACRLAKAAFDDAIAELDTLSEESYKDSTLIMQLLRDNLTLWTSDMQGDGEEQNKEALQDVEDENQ
As to the kind of experiment: fluorescence polarisation.

B1: p53TCT pS366/pT387 ([…]) (domain or fragment)
chain: not shown
As to B1, the Kd is 0.31 ± 0.008 µM.
